Assay results published in the supplement of paper PMC11876631.
± gives the standard deviation of the averaged measurements. Laboratory Escherichia coli strains with one amino-acid change in an essential protein, pooled on minimal glucose agar with carbenicillin or gentamicin at twice the control MIC (plus kanamycin and chloramphenicol for the plasmids), 48 h. Fold change of barcode share against drug-free plates; higher = less susceptible. Active = above 20 in both replicates (the paper's putatively resistant). '<' = one read or none on drug, '>' = one read or none on a drug-free plate. Shares are relative, so most strains fall below 1 when a few take over. Listed are strains with at least 15 reads on both drug-free plates, and hits; most hits rest on fewer reference reads. Replicate rank correlation about 0.5. Edits are read from barcodes.

Biological target: Escherichia coli (laboratory strain)
Test: barcode share on antibiotic plates over drug-free plates; higher = less susceptible
Experimental: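 A pool of E. coli strains, each edited to carry one amino-acid change in an essential protein, was grown for 48 h on minimal glucose agar with or without antibiotic; strain barcodes were sequenced; mean of two replicates.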

[1] = antibiotic: carbenicillin, 2× MIC (3.1 µg/mL)
[2] = antibiotic: gentamicin, 2× MIC (MIC 0.45 µg/mL)

| Protein | fold change of barcode share [1] | fold change of barcode share [2] |
| --- | --- | --- |
| lptG M288A (protein) MQPFGVLDRYIGKTIFTTIMMTLFMLVSLSGIIKFVDQLKKAGQGSYDALGAGMYTLLSVPKDVQIFFPMAALLGALLGLGMLAQRSELVVMQASGFTRMQVALSVMKTAIPLVLLTMAIGEWVAPQGEQMARNYRAQAMYGGSLLSTQQGLWAKDGNNFVYIERVKGDEELGGISIYAFNENRRLQSVRYAATAKFDPEHKVWRLSQVDESDLTNPKQITGSQTVSGTWKTNLTPDKLGVVALDPDALSISGLHNYVKYLKSSGQDAGRYQLNMWSKIFQPLSVAVAMLMALSFIFGPLRSVPMGVRVVTGISFGFVFYVLDQIFGPLTLVYGIPPIIGALLPSASFFLISLWLLMRKS | 0.355 ± 0.17 | < 0.00397 |
| lptG M288W (protein) MQPFGVLDRYIGKTIFTTIMMTLFMLVSLSGIIKFVDQLKKAGQGSYDALGAGMYTLLSVPKDVQIFFPMAALLGALLGLGMLAQRSELVVMQASGFTRMQVALSVMKTAIPLVLLTMAIGEWVAPQGEQMARNYRAQAMYGGSLLSTQQGLWAKDGNNFVYIERVKGDEELGGISIYAFNENRRLQSVRYAATAKFDPEHKVWRLSQVDESDLTNPKQITGSQTVSGTWKTNLTPDKLGVVALDPDALSISGLHNYVKYLKSSGQDAGRYQLNMWSKIFQPLSVAVWMLMALSFIFGPLRSVPMGVRVVTGISFGFVFYVLDQIFGPLTLVYGIPPIIGALLPSASFFLISLWLLMRKS | 0.296 ± 0.18 | 0.00577 ± 0.0034 |
| lptG M288Q (protein) MQPFGVLDRYIGKTIFTTIMMTLFMLVSLSGIIKFVDQLKKAGQGSYDALGAGMYTLLSVPKDVQIFFPMAALLGALLGLGMLAQRSELVVMQASGFTRMQVALSVMKTAIPLVLLTMAIGEWVAPQGEQMARNYRAQAMYGGSLLSTQQGLWAKDGNNFVYIERVKGDEELGGISIYAFNENRRLQSVRYAATAKFDPEHKVWRLSQVDESDLTNPKQITGSQTVSGTWKTNLTPDKLGVVALDPDALSISGLHNYVKYLKSSGQDAGRYQLNMWSKIFQPLSVAVQMLMALSFIFGPLRSVPMGVRVVTGISFGFVFYVLDQIFGPLTLVYGIPPIIGALLPSASFFLISLWLLMRKS | 0.217 ± 0.049 | 0.00332 ± 0.0016 |
| lptG M288D (protein) MQPFGVLDRYIGKTIFTTIMMTLFMLVSLSGIIKFVDQLKKAGQGSYDALGAGMYTLLSVPKDVQIFFPMAALLGALLGLGMLAQRSELVVMQASGFTRMQVALSVMKTAIPLVLLTMAIGEWVAPQGEQMARNYRAQAMYGGSLLSTQQGLWAKDGNNFVYIERVKGDEELGGISIYAFNENRRLQSVRYAATAKFDPEHKVWRLSQVDESDLTNPKQITGSQTVSGTWKTNLTPDKLGVVALDPDALSISGLHNYVKYLKSSGQDAGRYQLNMWSKIFQPLSVAVDMLMALSFIFGPLRSVPMGVRVVTGISFGFVFYVLDQIFGPLTLVYGIPPIIGALLPSASFFLISLWLLMRKS | 0.254 ± 0.018 | 0.00743 ± 0.0032 |
| lptG M288P (protein) MQPFGVLDRYIGKTIFTTIMMTLFMLVSLSGIIKFVDQLKKAGQGSYDALGAGMYTLLSVPKDVQIFFPMAALLGALLGLGMLAQRSELVVMQASGFTRMQVALSVMKTAIPLVLLTMAIGEWVAPQGEQMARNYRAQAMYGGSLLSTQQGLWAKDGNNFVYIERVKGDEELGGISIYAFNENRRLQSVRYAATAKFDPEHKVWRLSQVDESDLTNPKQITGSQTVSGTWKTNLTPDKLGVVALDPDALSISGLHNYVKYLKSSGQDAGRYQLNMWSKIFQPLSVAVPMLMALSFIFGPLRSVPMGVRVVTGISFGFVFYVLDQIFGPLTLVYGIPPIIGALLPSASFFLISLWLLMRKS | 0.272 ± 0.015 | < 0.00383 |
| lptG M289A (protein) MQPFGVLDRYIGKTIFTTIMMTLFMLVSLSGIIKFVDQLKKAGQGSYDALGAGMYTLLSVPKDVQIFFPMAALLGALLGLGMLAQRSELVVMQASGFTRMQVALSVMKTAIPLVLLTMAIGEWVAPQGEQMARNYRAQAMYGGSLLSTQQGLWAKDGNNFVYIERVKGDEELGGISIYAFNENRRLQSVRYAATAKFDPEHKVWRLSQVDESDLTNPKQITGSQTVSGTWKTNLTPDKLGVVALDPDALSISGLHNYVKYLKSSGQDAGRYQLNMWSKIFQPLSVAVMALMALSFIFGPLRSVPMGVRVVTGISFGFVFYVLDQIFGPLTLVYGIPPIIGALLPSASFFLISLWLLMRKS | 0.293 ± 0.12 | < 0.00636 |
| lptG M289W (protein) MQPFGVLDRYIGKTIFTTIMMTLFMLVSLSGIIKFVDQLKKAGQGSYDALGAGMYTLLSVPKDVQIFFPMAALLGALLGLGMLAQRSELVVMQASGFTRMQVALSVMKTAIPLVLLTMAIGEWVAPQGEQMARNYRAQAMYGGSLLSTQQGLWAKDGNNFVYIERVKGDEELGGISIYAFNENRRLQSVRYAATAKFDPEHKVWRLSQVDESDLTNPKQITGSQTVSGTWKTNLTPDKLGVVALDPDALSISGLHNYVKYLKSSGQDAGRYQLNMWSKIFQPLSVAVMWLMALSFIFGPLRSVPMGVRVVTGISFGFVFYVLDQIFGPLTLVYGIPPIIGALLPSASFFLISLWLLMRKS | 0.235 ± 0.044 | 0.0084 ± 0.002 |
| lptG M289Q (protein) MQPFGVLDRYIGKTIFTTIMMTLFMLVSLSGIIKFVDQLKKAGQGSYDALGAGMYTLLSVPKDVQIFFPMAALLGALLGLGMLAQRSELVVMQASGFTRMQVALSVMKTAIPLVLLTMAIGEWVAPQGEQMARNYRAQAMYGGSLLSTQQGLWAKDGNNFVYIERVKGDEELGGISIYAFNENRRLQSVRYAATAKFDPEHKVWRLSQVDESDLTNPKQITGSQTVSGTWKTNLTPDKLGVVALDPDALSISGLHNYVKYLKSSGQDAGRYQLNMWSKIFQPLSVAVMQLMALSFIFGPLRSVPMGVRVVTGISFGFVFYVLDQIFGPLTLVYGIPPIIGALLPSASFFLISLWLLMRKS | 0.25 ± 0.064 | 0.00592 ± 0.0022 |
| lptG M289D (protein) MQPFGVLDRYIGKTIFTTIMMTLFMLVSLSGIIKFVDQLKKAGQGSYDALGAGMYTLLSVPKDVQIFFPMAALLGALLGLGMLAQRSELVVMQASGFTRMQVALSVMKTAIPLVLLTMAIGEWVAPQGEQMARNYRAQAMYGGSLLSTQQGLWAKDGNNFVYIERVKGDEELGGISIYAFNENRRLQSVRYAATAKFDPEHKVWRLSQVDESDLTNPKQITGSQTVSGTWKTNLTPDKLGVVALDPDALSISGLHNYVKYLKSSGQDAGRYQLNMWSKIFQPLSVAVMDLMALSFIFGPLRSVPMGVRVVTGISFGFVFYVLDQIFGPLTLVYGIPPIIGALLPSASFFLISLWLLMRKS | 0.263 ± 0.0082 | 0.00718 ± 0.0047 |
| lptG I15Q (protein) MQPFGVLDRYIGKTQFTTIMMTLFMLVSLSGIIKFVDQLKKAGQGSYDALGAGMYTLLSVPKDVQIFFPMAALLGALLGLGMLAQRSELVVMQASGFTRMQVALSVMKTAIPLVLLTMAIGEWVAPQGEQMARNYRAQAMYGGSLLSTQQGLWAKDGNNFVYIERVKGDEELGGISIYAFNENRRLQSVRYAATAKFDPEHKVWRLSQVDESDLTNPKQITGSQTVSGTWKTNLTPDKLGVVALDPDALSISGLHNYVKYLKSSGQDAGRYQLNMWSKIFQPLSVAVMMLMALSFIFGPLRSVPMGVRVVTGISFGFVFYVLDQIFGPLTLVYGIPPIIGALLPSASFFLISLWLLMRKS | 0.612 ± 0.33 |  |
| lptG L73A (protein) MQPFGVLDRYIGKTIFTTIMMTLFMLVSLSGIIKFVDQLKKAGQGSYDALGAGMYTLLSVPKDVQIFFPMAAALGALLGLGMLAQRSELVVMQASGFTRMQVALSVMKTAIPLVLLTMAIGEWVAPQGEQMARNYRAQAMYGGSLLSTQQGLWAKDGNNFVYIERVKGDEELGGISIYAFNENRRLQSVRYAATAKFDPEHKVWRLSQVDESDLTNPKQITGSQTVSGTWKTNLTPDKLGVVALDPDALSISGLHNYVKYLKSSGQDAGRYQLNMWSKIFQPLSVAVMMLMALSFIFGPLRSVPMGVRVVTGISFGFVFYVLDQIFGPLTLVYGIPPIIGALLPSASFFLISLWLLMRKS | 0.418 ± 0.069 | 0.00268 ± 0.00013 |
| lptG L73Q (protein) MQPFGVLDRYIGKTIFTTIMMTLFMLVSLSGIIKFVDQLKKAGQGSYDALGAGMYTLLSVPKDVQIFFPMAAQLGALLGLGMLAQRSELVVMQASGFTRMQVALSVMKTAIPLVLLTMAIGEWVAPQGEQMARNYRAQAMYGGSLLSTQQGLWAKDGNNFVYIERVKGDEELGGISIYAFNENRRLQSVRYAATAKFDPEHKVWRLSQVDESDLTNPKQITGSQTVSGTWKTNLTPDKLGVVALDPDALSISGLHNYVKYLKSSGQDAGRYQLNMWSKIFQPLSVAVMMLMALSFIFGPLRSVPMGVRVVTGISFGFVFYVLDQIFGPLTLVYGIPPIIGALLPSASFFLISLWLLMRKS | 0.299 ± 0.064 | 0.00727 ± 0.0067 |
| lptG L73D (protein) MQPFGVLDRYIGKTIFTTIMMTLFMLVSLSGIIKFVDQLKKAGQGSYDALGAGMYTLLSVPKDVQIFFPMAADLGALLGLGMLAQRSELVVMQASGFTRMQVALSVMKTAIPLVLLTMAIGEWVAPQGEQMARNYRAQAMYGGSLLSTQQGLWAKDGNNFVYIERVKGDEELGGISIYAFNENRRLQSVRYAATAKFDPEHKVWRLSQVDESDLTNPKQITGSQTVSGTWKTNLTPDKLGVVALDPDALSISGLHNYVKYLKSSGQDAGRYQLNMWSKIFQPLSVAVMMLMALSFIFGPLRSVPMGVRVVTGISFGFVFYVLDQIFGPLTLVYGIPPIIGALLPSASFFLISLWLLMRKS | 0.411 ± 0.16 | 0.00704 ± 0.00045 |
